Reference: article PMC5892938
The other results are listed elsewhere or left out. At the low end of the ranking, values are background and their order means little.
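Also: DESeq read counts versus GST-SBP nonspecific binding control pulldown.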

These sequences were tested against GST-SBP-SLBP (stem-loop binding protein) (UniProt Q14493) (assay: targeted RNA Bind-n-Seq). Settings: RBNS binding buffer: 25 mM Tris pH 7.5, 150 mM KCl, 3 mM MgCl2, 0.1% Tween, 0.5 mg/mL BSA, 1 mM DTT; 27 nM protein, 750 pM RNA pool; temperature not stated; high values mean tight binding.
“GGUCACGUCUCAAUCAACUCAUUUCCCAGGGAAAACCCUGGUUUACUCAACAGCUCGCAGUCAAG” showed a binding signal (log2 fold change) of -0.0903. Sequence “GGUCACGUCUCAAUCAACUCUUCCCCAGGAGUUUCCUCCUGUUUUUUCAACAGCUCGCAGUCAAG” has a binding signal (log2 fold change) of 0.00201. In the case of “GGUCACGUCUCAAUCAACUCUCUAGAGGGGGGGAAAACCCCUUUACCCUCCAUGUCAACAGCUCGCAGUCAAG”, the binding signal (log2 fold change) is reported as -0.298. “GGUCACGUCUCAAUCAACUCAAUCUCAGGAGUUUUCUCCUGUAAAUUCAACAGCUCGCAGUCAAG” gave a binding signal (log2 fold change) of -0.217. “GGUCACGUCUCAAUCAACUCUUUCCCCAGGGAAACCCCUGGUAAUUUCAACAGCUCGCAGUCAAG” was tested, and the binding signal (log2 fold change) was 0.0986. For “GGUCACGUCUCAAUCAACUCUUCCUCAGGAGUUUACUCCUGUAAAUUCAACAGCUCGCAGUCAAG”, the binding signal (log2 fold change) was -0.144. Sequence “GGUCACGUCUCAAUCAACUCUUUCCCAGGAGUUUACUCCUGCAUACUCAACAGCUCGCAGUCAAG” has a binding signal (log2 fold change) of -0.159. Work on “GGUCACGUCUCAAUCAACUCAUUCUCAGGAGUUUUCUCCUGUUUAUUCAACAGCUCGCAGUCAAG” yielded a binding signal (log2 fold change) of 0.0954. Work on “GGUCACGUCUCAAUCAACUCUUCCCCCAGGGAAAGCCCUGGCAUAUUCAACAGCUCGCAGUCAAG” yielded a binding signal (log2 fold change) of -0.0277. “GGUCACGUCUCAAUCAACUCAUCCUCAGGAGUUUGCUCCUGCAUUUUCAACAGCUCGCAGUCAAG” gave a binding signal (log2 fold change) of 0.174. Sequence “GGUCACGUCUCAAUCAACUCUUCGUCCAGGGAAAUCCCUGGUAUAUUCAACAGCUCGCAGUCAAG” has a binding signal (log2 fold change) of 0.13. Work on “GGUCACGUCUCAAUCAACUCCUUCGAGGGGGGGAAAACCCCUUUACCCUCUUCUUCAACAGCUCGCAGUCAAG” yielded a binding signal (log2 fold change) of -0.183. “GGUCACGUCUCAAUCAACUCAUCCUCCAGGGAAAUCCCUGGCAUUCUCAACAGCUCGCAGUCAAG” gave a binding signal (log2 fold change) of -0.0223. “GGUCACGUCUCAAUCAACUCUUUCCCCAGGGAAAGCCCUGGUAUUCUCAACAGCUCGCAGUCAAG” showed a binding signal (log2 fold change) of 0.013. “GGUCACGUCUCAAUCAACUCAUUUUCCAGGGAAAGCCCUGGCAUUUUCAACAGCUCGCAGUCAAG” gave a binding signal (log2 fold change) of -0.0522. In the case of “GGUCACGUCUCAAUCAACUCUAUCCCCAGGGAAAUCCCUGGUAAUUUCAACAGCUCGCAGUCAAG”, the binding signal (log2 fold change) is reported as 0.00975. “GGUCACGUCUCAAUCAACUCAUCGCCCAGGGAAACCCCUGGUAAAUUCAACAGCUCGCAGUCAAG” showed a binding signal (log2 fold change) of -0.429. Sequence “GGUCACGUCUCAAUCAACUCAUAAGAGGGGGGGAAAACCCCUUUGCCCUCAAAAUCAACAGCUCGCAGUCAAG” has a binding signal (log2 fold change) of 0.153. “GGUCACGUCUCAAUCAACUCAUCCCCAGGAGUUUCCUCCUGUUUAGUCAACAGCUCGCAGUCAAG” showed a binding signal (log2 fold change) of 0.0392. In the case of “GGUCACGUCUCAAUCAACUCAACUUCAGGAGUUUCCUCCUGUUAUUUCAACAGCUCGCAGUCAAG”, the binding signal (log2 fold change) is reported as 0.0416. “GGUCACGUCUCAAUCAACUCAUCCUCCAGGGAAAUCCCUGGCAAUUUCAACAGCUCGCAGUCAAG” showed a binding signal (log2 fold change) of 0.131. “GGUCACGUCUCAAUCAACUCUUCCUCAGGAGUUUUCUCCUGUAAAUUCAACAGCUCGCAGUCAAG” showed a binding signal (log2 fold change) of -0.029. “GGUCACGUCUCAAUCAACUCUUUCCCCAGGGAAAGCCCUGGUUAUUUCAACAGCUCGCAGUCAAG” showed a binding signal (log2 fold change) of 0.0687. Work on “GGUCACGUCUCAAUCAACUCUUUCCCCAGGGAAAUCCCUGGCAAUGUCAACAGCUCGCAGUCAAG” yielded a binding signal (log2 fold change) of -0.158. With “GGUCACGUCUCAAUCAACUCAUCUCCCAGGGAAACCCCUGGCAUUCUCAACAGCUCGCAGUCAAG” the binding signal (log2 fold change) was 0.175. “GGUCACGUCUCAAUCAACUCAUCGCCAGGAGUUUACUCCUGUAAUUUCAACAGCUCGCAGUCAAG” was tested, and the binding signal (log2 fold change) was -0.0688. “GGUCACGUCUCAAUCAACUCAGUCUCCAGGGAAACCCCUGGUUUUUUCAACAGCUCGCAGUCAAG” was tested, and the binding signal (log2 fold change) was 0.14. In the case of “GGUCACGUCUCAAUCAACUCUUCUCCCAGGGAAAACCCUGGCUUACUCAACAGCUCGCAGUCAAG”, the binding signal (log2 fold change) is reported as -0.123. “GGUCACGUCUCAAUCAACUCUUUUCCCAGGGAAAACCCUGGCAAUCUCAACAGCUCGCAGUCAAG” showed a binding signal (log2 fold change) of -0.151. “GGUCACGUCUCAAUCAACUCUUUUUCAGGAGUUUUCUCCUGUAUAUUCAACAGCUCGCAGUCAAG” showed a binding signal (log2 fold change) of -0.189. With “GGUCACGUCUCAAUCAACUCAGUCUCCAGGGAAAACCCUGGCAUUCUCAACAGCUCGCAGUCAAG” the binding signal (log2 fold change) was 0.138. “GGUCACGUCUCAAUCAACUCAACUCCAGGAGUUUUCUCCUGUAAUUUCAACAGCUCGCAGUCAAG” gave a binding signal (log2 fold change) of 0.198. Work on “GGUCACGUCUCAAUCAACUCAACUUCCAGGGAAAGCCCUGGCUUAUUCAACAGCUCGCAGUCAAG” yielded a binding signal (log2 fold change) of 0.00177. For “GGUCACGUCUCAAUCAACUCAAAAGAGGGGGGGAAAACCCCUUUACCCUCGUUAUCAACAGCUCGCAGUCAAG”, the binding signal (log2 fold change) was -0.37. In the case of “GGUCACGUCUCAAUCAACUCUUUCUCAGGAGUUUACUCCUGCUUAUUCAACAGCUCGCAGUCAAG”, the binding signal (log2 fold change) is reported as 0.0167. “GGUCACGUCUCAAUCAACUCUUACGAGGGGGGGAAAACCCCUUUACCCUCUUCAUCAACAGCUCGCAGUCAAG” was tested, and the binding signal (log2 fold change) was 0.218. “GGUCACGUCUCAAUCAACUCAGUUCCAGGAGUUUCCUCCUGCAAAUUCAACAGCUCGCAGUCAAG” showed a binding signal (log2 fold change) of -0.119. With “GGUCACGUCUCAAUCAACUCAUUCUCAGGAGUUUUCUCCUGUAUAUUCAACAGCUCGCAGUCAAG” the binding signal (log2 fold change) was 0.0283.
